Experimental data as given in PubChem BioAssay (NCI).
“And” between values parts separate entries of the source, which are not always exact repeats. Identical values can stand only once.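 Interpolation was linear, between the two tested concentrations surrounding the appropriate level; five concentrations were tested over 48 hours in 96-well plates. At the GI50, growth is halved. The concentration for full growth arrest is given as TGI.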

System: NCI-H322M lung
Assay: NCI tumour cell line growth inhibition, 48 h

Compound: O=C(O)c1ccc(CSc2nc3ccccc3[nH]2)cc1
- GI50: > 100 µM
- TGI: > 100 µM

Compound: O=C(c1ccccc1)c1ccc(N2C(=O)/C(=C/c3cccc(Oc4ccccc4)c3)N=C2c2ccccc2)c(N2C(=O)/C(=C/c3cccc(Oc4ccccc4)c3)N=C2c2ccccc2)c1
- TGI: > 100 µM

Compound: CCOc1cc(Cl)c(C(C)NC(=O)c2cccc(OC)c2)cc1OCC (stereo unspecified)
- GI50: > 68.6 µM
- TGI: > 100 µM

Compound: CN(C)CC1(Cc2ccccc2)CC/C(=C\c2ccccc2)C1=O (stereo unspecified)
- TGI: > 100 µM

Compound: CCOC(=O)c1c(-c2ccccc2)n2c(=O)cc(C)c3c(O)c(O)cc1c32
- GI50: 3.75 µM
- TGI: > 100 µM

Compound: OC1(C(Sc2ccccc2)Sc2ccccc2)CCCCCC1
- TGI: > 100 µM

Compound: CC(=O)NC1C(OCc2ccccc2)OC(CO)C(O)C1OCC(=O)NC(C(=O)NC(CCC(=O)NCCCCCC(=O)Nc1ccc2c(c1)CN1C(=O)c3ccccc3C1=N2)C(N)=O)C(C)C (stereo unspecified)
- TGI: 39.4 µM

Compound: Nc1ccc(-c2nc3ccccc3s2)cc1CO
- TGI: > 100 µM

Compound: COc1ccc(-c2cc(=O)c3c(OC)c4ccoc4c(/C=C/C=O)c3o2)cc1
- GI50: 5.06 µM
- TGI: 64.4 µM

Compound: COc1ccc2c(O)c1-c1c(OC)ccc(c1O)SSc1ccc(OC)c(c1O)-c1c(OC)ccc(c1O)SS2
- TGI: > 100 µM

Compound: CC(=O)[O-].CC(=O)[O-].O=C([CH-]C(=O)c1ccccc1)c1ccccc1.[Nd+3].[OH3+]
- GI50: 16.4 µM
- TGI: 70.2 µM

Compound: Nc1[nH]c(=O)nc2c1cnn2COCCO
- TGI: > 100 µM

Compound: COC(=O)CN1Cc2cc(C)cc(c2O)CN(CC(=O)OC)Cc2cc(C)cc(c2O)CN(CC(=O)OC)Cc2cc(C)cc(c2O)CN(CC(=O)OC)Cc2cc(C)cc(c2O)C1
- GI50: 28.8 µM
- TGI: 50 µM and > 100 µM

Compound: CC(=O)N1C(c2[nH]c3ccccc3c2Cc2ccccc2)CCN1c1ccccc1 (stereo unspecified)
- TGI: > 10 µM

Compound: Cc1cc(C)c(NS(=O)c2ccc(Cl)cc2)c(C)c1 (stereo unspecified)
- TGI: > 100 µM

Compound: Cc1[nH]c(=O)n2c(C)nnc2c1C(=O)O
- TGI: > 100 µM

Compound: COc1ccc(-c2nc3sccn3c2-c2ccnc(NCCNS(=O)(=O)c3ccc(C(F)(F)F)cc3)n2)cc1
- GI50: 5.81 µM
- TGI: > 100 µM

Compound: Cc1cn2c(/C=N/N=C(N)N)c(-c3ccc([N+](=O)[O-])cc3)nc2s1
- TGI: 3.11 µM

Compound: O=C1CCc2cc(Br)ccc2O1
- TGI: > 100 µM

Compound: Cc1cc(S(=O)(=O)Nc2nc3ccccc3c(=O)n2Cc2ccco2)c(S)cc1Cl
- GI50: 42.3 µM
- TGI: > 100 µM

Compound: CCOC(=O)C(C(=O)OCC)=C1C=C(c2ccccc2)c2ccccc21
- TGI: > 100 µM

Compound: C1=NN2C(c3ccccc3)=NOC2C2C(c3ccccc3)=NOC12 (stereo unspecified)
- TGI: > 100 µM

Compound: Cc1ccc(C(=O)NC2C(=O)NC(C(C)C)C(=O)N3CCCC3C(=O)N(C)CC(=O)N(C)C(C(C)C)C(=O)OC2C)c2c1Oc1c(c(C(=O)NC3C(=O)NC(C(C)C)C(=O)N4CCCC4C(=O)N(C)CC(=O)N(C)C(C(C)C)C(=O)OC3C)c3nc(-c4ccccc4)c(=O)oc3c1C)N2 (stereo unspecified)
- TGI: 0.0495 µM

Compound: O=C1CCC(=O)c2ccccc2N1
- TGI: > 100 µM

Compound: CCCCCCCCCCCCCCCCCCN(C)CC(COC)OP(=O)([O-])OCC[N+](C)(C)C (stereo unspecified)
- TGI: 19.5 µM

Compound: C1CSCCSCCSCCSCCS1
- TGI: > 100 µM

Compound: CN(C)c1n2c3ccc([N+](=O)[O-])cc3n3c(N(C)C)[n+]4ccccc4c3c2c2cccc[n+]12
- TGI: > 100 µM

Compound: CC(C)C[C@H](NC(=O)[C@@H](Cc1ccccc1)n1ccc(Nc2ccccc2)cc1=O)B(O)O
- GI50: 14.5 µM
- TGI: > 100 µM

Compound: CC(C)(C)N1CC1CNC(=O)C(=O)NCC1CN1C(C)(C)C (stereo unspecified)
- TGI: > 14.2 µM

Compound: N#CC1=C(N)N=C(N2CCOCC2)C(C#N)C12Nc1ccccc1S2 (stereo unspecified)
- GI50: 23.1 µM
- TGI: 61.3 µM

Compound: Cn1cc(-c2csc(-c3ccccc3)n2)c2cccnc21
- GI50: 15.1 µM
- TGI: 36.7 µM

Compound: CC(C)c1cnc(-c2cc(Cl)ccc2F)cc1Nc1ccncc1C(=O)NC(CO)CO
- GI50: 11 µM
- TGI: 37.1 µM

Compound: N#CCCC(C#N)(C#N)CCC#N
- TGI: > 100 µM

Compound: CC(=O)OC1C(O)C(C)OC(OC2C(OC(=O)C3CCC4C(C3)OC3(CC(OC(=O)/C=C/c5ccccc5)C(C)CO3)C43CO3)OC(C)C(O)C2OC(C)=O)C1O (stereo unspecified)
- TGI: 0.176 µM

Compound: Nc1nc2ccc(CNc3ccc(C(=O)NC(CC(=O)O)C(=O)O)cc3)cc2c(=O)[nH]1 (stereo unspecified)
- GI50: 1.85 µM
- TGI: > 100 µM

Compound: Cc1ccc2ncnc(N(C)C3CCCCC3)c2c1
- GI50: 41.3 µM
- TGI: > 100 µM

Compound: O=S(=O)(O)c1c(Cl)c(Cl)c(O)c2ncccc12
- TGI: 36.6 µM

Compound: CCOC(=O)N1c2ccccc2N(C(=O)OCC)C1CC(=O)/C=C/c1ccccc1
- TGI: 7.93 µM

Compound: Cc1ccc(NC(=S)NNC(=S)Nc2ccc(C)cc2)cc1
- GI50: 82.2 µM
- TGI: > 100 µM

Compound: CC1(C)CC[C@]23CC[C@]4(C)[C@H](CC[C@@H]5[C@@]6(C)CCCNC(C)(C)[C@@H]6CC[C@]54C)[C@H]2[C@H]1OC3
- GI50: 1.64 µM
- TGI: 3.03 µM

Compound: COC(=O)C(=O)C(C(=O)OC)C(=O)C(=O)Nc1cc(Cl)c(C)cc1S(=O)(=O)O (stereo unspecified)
- TGI: > 100 µM

Compound: CO[P@@]1(=O)O[C@@H](c2ccccc2)[C@H](O)[C@@]1(O)c1ccccc1
- TGI: > 100 µM

Compound: c1ccc2c(c1)CCN1CCc3ccccc3C1C2 (stereo unspecified)
- TGI: > 100 µM

Compound: O=C1c2ccccc2C(=O)c2c1oc1cc(O)c(Cl)cc21
- TGI: 23.6 µM

Compound: CC1(C)N=C(C(N)=O)c2ncn(Cc3ccccc3)c2N1
- TGI: > 100 µM
